± gives the standard deviation of the averaged measurements. Restriction of a single-cycle SIVsab GFP reporter by TRIM5α v1-loop variants in CRFK cells. Human variants: read share among cells still uninfected after two challenges over input, higher = gained restriction. Rhesus variants: share among infected cells over input, higher = lost restriction. Reporter dose not given per row. No active / inactive call per row; the paper calls a change when both replicates lie above its controls (mean + 2 SD of stop or wild-type variants, or the top frameshift score). Residues outside the varied loop are taken from Swiss-Prot. The paper reads the human single-substitution scores as noise; they and the rhesus combinations repeat poorly (rank correlation 0.3 to 0.4), indel scores repeat only for the top variants, rhesus substitutions well (0.9).

The series relates to SIVsab (simian immunodeficiency virus of sabaeus monkeys), single-cycle GFP reporter, in CRFK cells. Description: enrichment among infected cells over input (fold); higher = weaker restriction. The following applies: library: human / rhesus combinations. On the procedure:
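Pools of CRFK cells expressing variants of the TRIM5α v1 loop were challenged with the single-cycle reporter, sorted by GFP and sequenced; mean of two replicates.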
Take “MASGILLNVKEEVTCPICLELLTEPLSLHCGHSFCQACITANHKKSMLYKEGERSCPVCRISYQPENIQPNRHVANIVEKLREVKLSPEEGQKVDHCARHGEKLLLFCQEDSKVICWLCERSQEHRGHHTFLMEEVAQEYHVKLQTALEMLRQKQQEAEKLEADIREEKASWKIQIDYDKTNVSADFEQLREILDWEESNELQNLEKEEEDILKSLTKSETEMVQQTQYMRELISELEHRLQGSMMDLLQGVDGIIKRIENMTLKKPKTFHKNQRRVFRAPDLKGMLDMFRELTDARRYWVDVTLAPNNISHAVIAEDKRQVSSRNPQIMYQARGTRFTFPTLTNFNYCTGVLGSQSITSGKHYWEVDVSKKSAWILGVCAGFQSDAMYNIEQNENYQPKYGYWVIGLQEGVKYSVFQDGSSHTPFAPFIVPLSVIICPDRVGVFVDYEACTVSFFNITNHGFLIYKFSQCSFSKPVFPYLNPRKCTVPMTLCSPSS [rhesus TRIM5α, 332-344 = QARGTRFTFPTLT]”: the enrichment was found to be 1.39 ± 0.021.
“MASGILLNVKEEVTCPICLELLTEPLSLHCGHSFCQACITANHKKSMLYKEGERSCPVCRISYQPENIQPNRHVANIVEKLREVKLSPEEGQKVDHCARHGEKLLLFCQEDSKVICWLCERSQEHRGHHTFLMEEVAQEYHVKLQTALEMLRQKQQEAEKLEADIREEKASWKIQIDYDKTNVSADFEQLREILDWEESNELQNLEKEEEDILKSLTKSETEMVQQTQYMRELISELEHRLQGSMMDLLQGVDGIIKRIENMTLKKPKTFHKNQRRVFRAPDLKGMLDMFRELTDARRYWVDVTLAPNNISHAVIAEDKRQVSSRNPQIMYQARGTRFTFPTLVNFNYCTGVLGSQSITSGKHYWEVDVSKKSAWILGVCAGFQSDAMYNIEQNENYQPKYGYWVIGLQEGVKYSVFQDGSSHTPFAPFIVPLSVIICPDRVGVFVDYEACTVSFFNITNHGFLIYKFSQCSFSKPVFPYLNPRKCTVPMTLCSPSS [rhesus TRIM5α, 332-344 = QARGTRFTFPTLV]”: the enrichment came out at 1.29 ± 0.63.
As for “MASGILLNVKEEVTCPICLELLTEPLSLHCGHSFCQACITANHKKSMLYKEGERSCPVCRISYQPENIQPNRHVANIVEKLREVKLSPEEGQKVDHCARHGEKLLLFCQEDSKVICWLCERSQEHRGHHTFLMEEVAQEYHVKLQTALEMLRQKQQEAEKLEADIREEKASWKIQIDYDKTNVSADFEQLREILDWEESNELQNLEKEEEDILKSLTKSETEMVQQTQYMRELISELEHRLQGSMMDLLQGVDGIIKRIENMTLKKPKTFHKNQRRVFRAPDLKGMLDMFRELTDARRYWVDVTLAPNNISHAVIAEDKRQVSSRNPQIMYQARGTRFTFQSFTNFNYCTGVLGSQSITSGKHYWEVDVSKKSAWILGVCAGFQSDAMYNIEQNENYQPKYGYWVIGLQEGVKYSVFQDGSSHTPFAPFIVPLSVIICPDRVGVFVDYEACTVSFFNITNHGFLIYKFSQCSFSKPVFPYLNPRKCTVPMTLCSPSS [rhesus TRIM5α, 332-344 = QARGTRFTFQSFT]”, the figure is 1.16 ± 0.087; as for “MASGILLNVKEEVTCPICLELLTEPLSLHCGHSFCQACITANHKKSMLYKEGERSCPVCRISYQPENIQPNRHVANIVEKLREVKLSPEEGQKVDHCARHGEKLLLFCQEDSKVICWLCERSQEHRGHHTFLMEEVAQEYHVKLQTALEMLRQKQQEAEKLEADIREEKASWKIQIDYDKTNVSADFEQLREILDWEESNELQNLEKEEEDILKSLTKSETEMVQQTQYMRELISELEHRLQGSMMDLLQGVDGIIKRIENMTLKKPKTFHKNQRRVFRAPDLKGMLDMFRELTDARRYWVDVTLAPNNISHAVIAEDKRQVSSRNPQIMYQARGTRFTFQSFVNFNYCTGVLGSQSITSGKHYWEVDVSKKSAWILGVCAGFQSDAMYNIEQNENYQPKYGYWVIGLQEGVKYSVFQDGSSHTPFAPFIVPLSVIICPDRVGVFVDYEACTVSFFNITNHGFLIYKFSQCSFSKPVFPYLNPRKCTVPMTLCSPSS [rhesus TRIM5α, 332-344 = QARGTRFTFQSFV]”, 0.98 ± 0.04.
Take “MASGILLNVKEEVTCPICLELLTEPLSLHCGHSFCQACITANHKKSMLYKEGERSCPVCRISYQPENIQPNRHVANIVEKLREVKLSPEEGQKVDHCARHGEKLLLFCQEDSKVICWLCERSQEHRGHHTFLMEEVAQEYHVKLQTALEMLRQKQQEAEKLEADIREEKASWKIQIDYDKTNVSADFEQLREILDWEESNELQNLEKEEEDILKSLTKSETEMVQQTQYMRELISELEHRLQGSMMDLLQGVDGIIKRIENMTLKKPKTFHKNQRRVFRAPDLKGMLDMFRELTDARRYWVDVTLAPNNISHAVIAEDKRQVSSRNPQIMYQARGTRFTFQSLTNFNYCTGVLGSQSITSGKHYWEVDVSKKSAWILGVCAGFQSDAMYNIEQNENYQPKYGYWVIGLQEGVKYSVFQDGSSHTPFAPFIVPLSVIICPDRVGVFVDYEACTVSFFNITNHGFLIYKFSQCSFSKPVFPYLNPRKCTVPMTLCSPSS [rhesus TRIM5α, 332-344 = QARGTRFTFQSLT]”: the enrichment was found to be 1.11 ± 0.38.
Consider “MASGILLNVKEEVTCPICLELLTEPLSLHCGHSFCQACITANHKKSMLYKEGERSCPVCRISYQPENIQPNRHVANIVEKLREVKLSPEEGQKVDHCARHGEKLLLFCQEDSKVICWLCERSQEHRGHHTFLMEEVAQEYHVKLQTALEMLRQKQQEAEKLEADIREEKASWKIQIDYDKTNVSADFEQLREILDWEESNELQNLEKEEEDILKSLTKSETEMVQQTQYMRELISELEHRLQGSMMDLLQGVDGIIKRIENMTLKKPKTFHKNQRRVFRAPDLKGMLDMFRELTDARRYWVDVTLAPNNISHAVIAEDKRQVSSRNPQIMYQARGTRFTFQSLVNFNYCTGVLGSQSITSGKHYWEVDVSKKSAWILGVCAGFQSDAMYNIEQNENYQPKYGYWVIGLQEGVKYSVFQDGSSHTPFAPFIVPLSVIICPDRVGVFVDYEACTVSFFNITNHGFLIYKFSQCSFSKPVFPYLNPRKCTVPMTLCSPSS [rhesus TRIM5α, 332-344 = QARGTRFTFQSLV]”, for which the enrichment came out at 1.62 ± 0.89.
Under “MASGILLNVKEEVTCPICLELLTEPLSLHCGHSFCQACITANHKKSMLYKEGERSCPVCRISYQPENIQPNRHVANIVEKLREVKLSPEEGQKVDHCARHGEKLLLFCQEDSKVICWLCERSQEHRGHHTFLMEEVAQEYHVKLQTALEMLRQKQQEAEKLEADIREEKASWKIQIDYDKTNVSADFEQLREILDWEESNELQNLEKEEEDILKSLTKSETEMVQQTQYMRELISELEHRLQGSMMDLLQGVDGIIKRIENMTLKKPKTFHKNQRRVFRAPDLKGMLDMFRELTDARRYWVDVTLAPNNISHAVIAEDKRQVSSRNPQIMYQARGTRFTFQTFTNFNYCTGVLGSQSITSGKHYWEVDVSKKSAWILGVCAGFQSDAMYNIEQNENYQPKYGYWVIGLQEGVKYSVFQDGSSHTPFAPFIVPLSVIICPDRVGVFVDYEACTVSFFNITNHGFLIYKFSQCSFSKPVFPYLNPRKCTVPMTLCSPSS [rhesus TRIM5α, 332-344 = QARGTRFTFQTFT]” stands 0.896 ± 0.58; under “MASGILLNVKEEVTCPICLELLTEPLSLHCGHSFCQACITANHKKSMLYKEGERSCPVCRISYQPENIQPNRHVANIVEKLREVKLSPEEGQKVDHCARHGEKLLLFCQEDSKVICWLCERSQEHRGHHTFLMEEVAQEYHVKLQTALEMLRQKQQEAEKLEADIREEKASWKIQIDYDKTNVSADFEQLREILDWEESNELQNLEKEEEDILKSLTKSETEMVQQTQYMRELISELEHRLQGSMMDLLQGVDGIIKRIENMTLKKPKTFHKNQRRVFRAPDLKGMLDMFRELTDARRYWVDVTLAPNNISHAVIAEDKRQVSSRNPQIMYQARGTRFTFQTFVNFNYCTGVLGSQSITSGKHYWEVDVSKKSAWILGVCAGFQSDAMYNIEQNENYQPKYGYWVIGLQEGVKYSVFQDGSSHTPFAPFIVPLSVIICPDRVGVFVDYEACTVSFFNITNHGFLIYKFSQCSFSKPVFPYLNPRKCTVPMTLCSPSS [rhesus TRIM5α, 332-344 = QARGTRFTFQTFV]”, 1.39 ± 1.3.
Under “MASGILLNVKEEVTCPICLELLTEPLSLHCGHSFCQACITANHKKSMLYKEGERSCPVCRISYQPENIQPNRHVANIVEKLREVKLSPEEGQKVDHCARHGEKLLLFCQEDSKVICWLCERSQEHRGHHTFLMEEVAQEYHVKLQTALEMLRQKQQEAEKLEADIREEKASWKIQIDYDKTNVSADFEQLREILDWEESNELQNLEKEEEDILKSLTKSETEMVQQTQYMRELISELEHRLQGSMMDLLQGVDGIIKRIENMTLKKPKTFHKNQRRVFRAPDLKGMLDMFRELTDARRYWVDVTLAPNNISHAVIAEDKRQVSSRNPQIMYQARGTRFTFQTLTNFNYCTGVLGSQSITSGKHYWEVDVSKKSAWILGVCAGFQSDAMYNIEQNENYQPKYGYWVIGLQEGVKYSVFQDGSSHTPFAPFIVPLSVIICPDRVGVFVDYEACTVSFFNITNHGFLIYKFSQCSFSKPVFPYLNPRKCTVPMTLCSPSS [rhesus TRIM5α, 332-344 = QARGTRFTFQTLT]” stands 0.918 ± 0.19; under “MASGILLNVKEEVTCPICLELLTEPLSLHCGHSFCQACITANHKKSMLYKEGERSCPVCRISYQPENIQPNRHVANIVEKLREVKLSPEEGQKVDHCARHGEKLLLFCQEDSKVICWLCERSQEHRGHHTFLMEEVAQEYHVKLQTALEMLRQKQQEAEKLEADIREEKASWKIQIDYDKTNVSADFEQLREILDWEESNELQNLEKEEEDILKSLTKSETEMVQQTQYMRELISELEHRLQGSMMDLLQGVDGIIKRIENMTLKKPKTFHKNQRRVFRAPDLKGMLDMFRELTDARRYWVDVTLAPNNISHAVIAEDKRQVSSRNPQIMYQARGTRFTFQTLVNFNYCTGVLGSQSITSGKHYWEVDVSKKSAWILGVCAGFQSDAMYNIEQNENYQPKYGYWVIGLQEGVKYSVFQDGSSHTPFAPFIVPLSVIICPDRVGVFVDYEACTVSFFNITNHGFLIYKFSQCSFSKPVFPYLNPRKCTVPMTLCSPSS [rhesus TRIM5α, 332-344 = QARGTRFTFQTLV]”, 1.11 ± 0.66; under “MASGILLNVKEEVTCPICLELLTEPLSLHCGHSFCQACITANHKKSMLYKEGERSCPVCRISYQPENIQPNRHVANIVEKLREVKLSPEEGQKVDHCARHGEKLLLFCQEDSKVICWLCERSQEHRGHHTFLMEEVAQEYHVKLQTALEMLRQKQQEAEKLEADIREEKASWKIQIDYDKTNVSADFEQLREILDWEESNELQNLEKEEEDILKSLTKSETEMVQQTQYMRELISELEHRLQGSMMDLLQGVDGIIKRIENMTLKKPKTFHKNQRRVFRAPDLKGMLDMFRELTDARRYWVDVTLAPNNISHAVIAEDKRQVSSRNPQIMYQARGTRYPSLTNFNYCTGVLGSQSITSGKHYWEVDVSKKSAWILGVCAGFQSDAMYNIEQNENYQPKYGYWVIGLQEGVKYSVFQDGSSHTPFAPFIVPLSVIICPDRVGVFVDYEACTVSFFNITNHGFLIYKFSQCSFSKPVFPYLNPRKCTVPMTLCSPSS [rhesus TRIM5α, 332-344 = QARGTRYPSLT]”, 0.29 ± 0.17.
As to “MASGILLNVKEEVTCPICLELLTEPLSLHCGHSFCQACITANHKKSMLYKEGERSCPVCRISYQPENIQPNRHVANIVEKLREVKLSPEEGQKVDHCARHGEKLLLFCQEDSKVICWLCERSQEHRGHHTFLMEEVAQEYHVKLQTALEMLRQKQQEAEKLEADIREEKASWKIQIDYDKTNVSADFEQLREILDWEESNELQNLEKEEEDILKSLTKSETEMVQQTQYMRELISELEHRLQGSMMDLLQGVDGIIKRIENMTLKKPKTFHKNQRRVFRAPDLKGMLDMFRELTDARRYWVDVTLAPNNISHAVIAEDKRQVSSRNPQIMYQARGTRYQSLTNFNYCTGVLGSQSITSGKHYWEVDVSKKSAWILGVCAGFQSDAMYNIEQNENYQPKYGYWVIGLQEGVKYSVFQDGSSHTPFAPFIVPLSVIICPDRVGVFVDYEACTVSFFNITNHGFLIYKFSQCSFSKPVFPYLNPRKCTVPMTLCSPSS [rhesus TRIM5α, 332-344 = QARGTRYQSLT]”, the enrichment is 1.01 ± 0.4.

Source of the values: the supplement of paper PMC12230231.
